# In article PMC4336329 (PLoS ONE, 2015):
# The whole screen tested about 310,000 compounds, of which about 2,200 (0.71%) showed an effect of 50% or more. The effect is printed as a negative number. The list shows a part of the results.
# Molecular target: human ether-à-go-go-related gene (hERG) potassium channel (human, UniProt Q12809)
# Assay: primary screen, population patch clamp on CHO cells stably expressing hERG
# Sequence of human ether-à-go-go-related gene (hERG) potassium channel (Q12809 whole entry, looked up): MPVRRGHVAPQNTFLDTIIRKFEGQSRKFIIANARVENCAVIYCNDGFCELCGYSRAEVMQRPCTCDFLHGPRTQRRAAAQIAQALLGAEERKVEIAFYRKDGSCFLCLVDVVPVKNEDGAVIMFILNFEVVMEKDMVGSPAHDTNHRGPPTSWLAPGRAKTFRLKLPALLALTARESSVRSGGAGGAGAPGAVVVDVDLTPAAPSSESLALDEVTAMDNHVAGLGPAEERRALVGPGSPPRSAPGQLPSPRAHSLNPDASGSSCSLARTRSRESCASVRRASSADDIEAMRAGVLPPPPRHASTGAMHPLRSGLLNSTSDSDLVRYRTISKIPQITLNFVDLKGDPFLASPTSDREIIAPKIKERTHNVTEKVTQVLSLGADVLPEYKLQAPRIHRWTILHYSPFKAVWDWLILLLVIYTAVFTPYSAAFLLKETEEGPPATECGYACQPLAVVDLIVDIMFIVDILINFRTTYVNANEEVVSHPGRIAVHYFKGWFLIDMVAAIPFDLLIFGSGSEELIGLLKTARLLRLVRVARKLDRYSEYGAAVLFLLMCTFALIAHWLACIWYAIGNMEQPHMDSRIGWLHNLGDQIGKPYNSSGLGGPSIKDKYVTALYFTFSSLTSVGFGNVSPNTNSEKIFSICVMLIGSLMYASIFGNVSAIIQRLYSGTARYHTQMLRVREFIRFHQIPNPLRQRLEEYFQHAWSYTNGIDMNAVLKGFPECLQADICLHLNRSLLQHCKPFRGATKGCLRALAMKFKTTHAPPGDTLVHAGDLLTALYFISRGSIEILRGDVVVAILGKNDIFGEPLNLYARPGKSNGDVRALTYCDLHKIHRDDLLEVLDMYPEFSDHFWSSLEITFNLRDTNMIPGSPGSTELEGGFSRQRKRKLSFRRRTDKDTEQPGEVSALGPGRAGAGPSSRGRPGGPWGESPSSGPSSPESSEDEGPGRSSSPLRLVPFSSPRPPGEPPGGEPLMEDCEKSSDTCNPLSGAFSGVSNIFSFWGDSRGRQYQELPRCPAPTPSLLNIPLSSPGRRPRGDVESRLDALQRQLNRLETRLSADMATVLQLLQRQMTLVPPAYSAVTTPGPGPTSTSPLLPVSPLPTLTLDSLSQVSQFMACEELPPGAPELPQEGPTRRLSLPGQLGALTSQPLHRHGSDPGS
row,Structure (SMILES),"hERG current change (%, negative = inhibition) at 1uM [%]"
1,C=C(C)CN(CC)C(=O)c1ccc(OC2CCN(S(=O)(=O)N(C)C)CC2)cc1,9.36
2,Brc1ccc(-c2nnc3sc(CNCc4ccc5c(c4)OCO5)cn23)cc1,1.45
3,Nc1cc(N)nc(SCC(=O)N2CCN(S(=O)(=O)c3ccccc3)CC2)n1,3.24
4,CCOC(=O)c1cnc(-n2nc(C)cc2C)nc1NNc1ncc(-c2ccccc2)cn1,-5.49
5,COCCC1CCCCN1C(=O)c1ccc(OC2CCN(C(C)=O)CC2)c(OC)c1 (stereo not shown),11.1
6,CC(C)Sc1nnc(SCC(=O)N(C)C2CCS(=O)(=O)C2)s1 (stereo not shown),9.04
7,CCCn1c(N)c(C(=O)CSc2nnc3n2CCCCC3)c(=O)n(C)c1=O,10.9
8,CCOc1ccc(N=C2NC(=O)CS2)cc1,11.1
9,COc1cc(C(=O)NCC(C)(C)CNC(=O)c2cc(OC)c(OC)c(OC)c2)cc(OC)c1OC,15.5
10,COc1ccc(C(=O)C[n+]2ccccc2/C=N/O)cc1.[Br-],13.6
11,COc1ccc2[nH]c(O)c(N=NC(=O)Cc3cccs3)c2c1,5.53
12,COc1ccc(OC)c(NC(=O)CCNC(=O)Cn2ccc3ccccc3c2=O)c1,12.5
13,O=C(O)CCCCCNC(=O)Cn1nnc2ccccc2c1=O,11.6
14,O=C(c1ccccc1-c1nc(-c2ccc(Cl)cc2)no1)N1CCCC1,10.1
15,Cc1ccccc1NC(=S)N/N=C/C(C)c1ccccc1 (stereo not shown),9.03
16,c1ccc2sc(-c3ccc4c(c3)OCO4)nc2c1,4.67
17,O=C(COc1ccc2c(-c3ccccc3)cc(=O)oc2c1)NCCN1CCOCC1,2.3
18,O=C(CC(=O)c1ccccc1)Nc1ccccc1,7.17
19,Cc1cc(SCC(=O)c2ccc(O)c(O)c2)nc2ccccc12,6.8
20,CC(C)(C)NC(=O)c1ccc(Sc2ccccc2)c([N+](=O)[O-])c1,-2.57
21,O=C(Cc1ccc(-n2cccc2)cc1)NCc1ccccc1Cl,7.19
22,CCOC(=O)N1CCc2c(sc(NC(=O)CN3CCOCC3)c2C#N)C1,8.66

row,Structure (SMILES),"hERG current change (%, negative = inhibition) at 1uM [%]"
1,CC1(OC(=O)C2CCCC2)C(=O)C=C2C=C(c3ccsc3)N(Cc3ccc4c(c3)OCO4)C=C2C1=O (stereo not shown),-4.99
2,Cc1c(C(c2ccc(O)cc2)c2c(C)n(C)n(-c3ccccc3)c2=O)c(=O)n(-c2ccccc2)n1C,19.9
3,Cc1ccc(C)c(OCc2ccc(C(=O)Nc3ccc([N+](=O)[O-])cn3)o2)c1,16.5
4,O=C(Cn1cnc2c(nnn2Cc2ccc(F)cc2)c1=O)N1CCCc2ccccc21,8.32
5,O=C(CCNS(=O)(=O)c1cccc2nsnc12)NCc1ccccc1Cl,11
6,CN1CCN(C(=O)C2=C[C@H](c3csc4ccccc34)C[C@H](OCCCCO)O2)CC1,6.38
7,Cc1cccc(C(=O)NC(=S)NCc2cccnc2)c1,5.34
8,CCN1CCN(c2nc(Nc3ccc(C)c(C)c3)nc(N)c2[N+](=O)[O-])CC1,-26.5
9,Cc1cc(NC(=O)c2cccc(S(=O)(=O)N3CCCCCC3)c2)n(-c2ccccn2)n1,16.7
10,Cc1nn(-c2ccccc2)c(C)c1C(=O)NCc1ccc(F)cc1,-7.7
11,COc1cccc(-c2nnc3sc(-c4ccc(C)cc4)nn23)c1,-5.82
12,Cc1cccc(C)c1NC(=O)CCCSc1nnc(-c2ccc(Cl)cc2)n1-c1ccccc1,5.39
13,CC(C)CCn1cnc2c(cnn2-c2ccc(F)cc2)c1=O,13.3
14,O=C(CN1CCN(Cc2ccccc2)CC1)Nc1ccc(-n2cnnn2)cc1,-15.1
15,CN1CCN(C2CC(=O)N(Cc3ccc(N4CCCC4=O)cc3)C2=O)CC1 (stereo not shown),12.8
16,O=C(CNc1ccc2ccccc2c1)N/N=C/c1ccc(OC(=O)/C=C/c2ccco2)cc1,7.97
17,Cl.c1ccc(CN2CCOCC2)cc1,16.6
18,O=C(Nc1ccccc1N1CCOCC1)C1=NN(c2c(F)c(F)cc(F)c2F)C(=O)CC1,13.7
19,CCn1cc(C(=O)NCC(=O)NC(C)(C)CO)c(=O)c2cc3c(cc21)OCO3,13.7
20,CCCCNC(=S)N=Nc1c(O)[nH]c2ccccc12,17.3
21,O=C(c1cc(N2C(=O)C3C4CCC(C4)C3C2=O)ccc1Cl)N1CCCCCC1 (stereo not shown),5.93
